Measured values reported in the supplement of paper PMC3334620.
Whole data set: some 33,000 sequences, median “E-score (-0.5 to 0.5)” near -0.054, cut for the highest 2% near 0.39. This is one part of the list.

Target: Ylr278c (UniProt Q05854)
Assay: PBM E-score (8-mer binding enrichment) (E-score (-0.5 to 0.5)); higher = stronger / more preferred TF binding; most listed sequences are background and not binding sites
Conditions: protein concentration: 200 nM; construct: GST-DNA-binding domain
Procedure, shortened: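 PURExpress in vitro transcription/translation supplied GST-tagged yeast transcription factors, either full-length or DNA-binding domain. Applied at about 100-200 nM to universal all-10-mer Agilent arrays double-stranded by primer extension, the bound protein was detected with fluorescent anti-GST. E-scores, modified Wilcoxon-Mann-Whitney statistics, were given by the Universal PBM Analysis Suite to ungapped eight-base words pooled with their reverse complements after masliner normalisation.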

| Sequence | PBM E-score |
| --- | --- |
| GTGCTTTA | -0.09 |
| CACACATG | -0.266 |
| GAGAGCGA | -0.0697 |
| CCTTTGCC | -0.143 |
| AATTCGTA | -0.0871 |
| GGTGTGAA | 0.0191 |
| CGTTGCAG | -0.138 |
| ACATTAGA | -0.114 |
| CCTAATAG | -0.119 |
| GGCTTGAA | -0.135 |
| CCAACCCG | 0.0992 |
| CCTAGCTC | 0.108 |
| TAATCGAA | -0.0147 |
| GGTTTTAA | 0.204 |
| AGACCCTG | -0.235 |
| AACATGCA | -0.227 |
| CCACTGCA | -0.243 |
| CAAGATGG | -0.151 |
| CAAATTGG | -0.00322 |
| AAATGGGA | -0.167 |
| GCGAAAAA | 0.135 |
| AGACGGCC | 0.0197 |
| CACTTTGG | -0.0526 |
| TCGATAAA | 0.0129 |
| CATCTAAG | -0.126 |

| Sequence | PBM E-score |
| --- | --- |
| AGACCTAC | -0.142 |
| AGGGGTTA | -0.171 |
| GCCTTCAC | 0.00501 |
| ATAGGCAT | -0.072 |
| CTGTCAAA | -0.221 |
| GTCACACA | -0.101 |
| ACTACTAT | 0.0743 |
| GATGGCGC | -0.0855 |
| CGTGGATC | -0.133 |
| ACGTAAGA | -0.268 |
| TAATTCAA | -0.0538 |
| GACTCGAA | -0.0224 |
| GCGAGTCC | 0.102 |
| CTGTCGCC | 0.0179 |
| ATCGGGCC | 0.13 |
| GAGCTCTA | 0.0169 |
| CGCCTGGA | -0.098 |
| AATCAACA | 0.0594 |
| CTTGAGCC | -0.148 |
| ATCAACAC | -0.103 |
| CTTCATAC | -0.0193 |
| ACATCTAG | -0.14 |
| TCTAGACA | -0.2 |
| CCGTGCGA | 0.183 |
| CTGAAAGA | -0.124 |

| Sequence | PBM E-score |
| --- | --- |
| AGTGGAAA | -0.0355 |
| AAGCAGAC | -0.241 |
| GGCAATAC | 0.173 |
| CGAGACCG | 0.233 |
| GCCTTCGA | -0.18 |
| ACCATGGC | -0.153 |
| AAAAGATA | -0.0427 |
| CCATCCCG | 0.129 |
| CTTATCCA | -0.0762 |
| AACTCCTG | 0.152 |
| TATCTCAA | -0.113 |
| AACCGATA | 0.0662 |
| GATTTGCA | 0.0968 |
| AGTTAGGC | -0.0659 |
| AACGTCAT | -0.0958 |
| AGCATCAA | -0.161 |
| ACGTCCGG | 0.373 |
| GGGCTTTA | 0.034 |
| CACTTGTC | -0.0561 |
| ACGCTGAA | -0.0706 |
| GTCCAACA | -0.156 |
| CTTATGGC | -0.216 |
| AAGACCGT | 0.152 |
| CTAGCCGA | 0.0987 |
| TAACTCCA | -0.0465 |

| Sequence | PBM E-score |
| --- | --- |
| GCGCCTCC | 0.238 |
| AGTCCCGA | 0.207 |
| CTCGCTGC | -0.0912 |
| ATGGGATG | 0.0381 |
| ACCTAAGG | -0.254 |
| ATTTTCGC | 0.0951 |
| CTGGCACA | -0.391 |
| CAAATGAC | -0.152 |
| AATAGCAC | -0.015 |
| GCGTAGTA | -0.122 |
| AACTCAAC | 0.00243 |
| GCCAGGCC | 0.0863 |
| GTCATCAA | -0.089 |
| AAGCGAGA | -0.00596 |
| ACCTCGGA | 0.387 |
| GCGGCACA | 0.116 |
| GACCCGGC | 0.184 |
| CACGTTGA | -0.163 |
| GGTTCGGA | 0.42 |
| AGCAAACG | 0.00825 |
| ATGAGCGA | -0.117 |
| ATTTAACC | 0.135 |
| GTTTAGCA | -0.0611 |
| TCTACAGA | -0.0519 |
| AGATGCGA | 0.0808 |

| Sequence | PBM E-score |
| --- | --- |
| CTCCGGGA | 0.468 |
| CCAAGAGA | -0.167 |
| CATCTGCG | 0.0829 |
| AGTTGAAA | 0.114 |
| CGTTTTGA | -0.142 |
| CCGACAAG | 0.281 |
| CCCTCTCC | -0.0108 |
| ATATGTGA | -0.262 |
| CCAGTGGA | -0.145 |
| CTTCACAC | -0.0372 |
| AGGTTCAA | -0.118 |
| ATAGTAGG | -0.00095 |
| TACCTAAA | -0.0405 |
| GGGCGGAC | 0.399 |
| CTGTGCGC | 0.145 |
| GTTGAAAC | 0.0735 |
| TGGCACAA | -0.204 |
| ATAACTGA | -0.0171 |
| GAGTAATA | 0.139 |
| ACATTACT | -0.177 |
| AGACTCTC | -0.141 |
| CCATTAAC | -0.113 |
| TCGTGGAA | 0.0808 |
| AAGAAGCC | 0.278 |
| CGAGATTA | 0.168 |

| Sequence | PBM E-score |
| --- | --- |
| AGTGGGAT | -0.00431 |
| CCTTCCCA | -0.0384 |
| AAGACCCA | -0.147 |
| CTAATACA | -0.0858 |
| AAATAACA | -0.043 |
| GCACACGC | -0.0949 |
| CCAGAAGC | -0.0506 |
| TAATCTAA | -0.0712 |
| GATACGGC | 0.0373 |
| GCCAAGCA | -0.195 |
| ATAGCCCC | -0.129 |
| CCATCAAA | -0.101 |
| CAGATCAA | -0.169 |
| GTATCATA | -0.0131 |
| ACGTCAGA | -0.338 |
| CGGTGAAG | 0.0946 |
| AAGCCTTC | -0.22 |
| CTGGACTC | -0.0592 |
| ACGAGCAC | -0.0719 |
| ACCTTCAA | -0.129 |
| CCATCTCA | -0.255 |
| CAAGTCGC | -0.218 |
| AGAAATTG | 0.096 |
| CTACTCTC | -0.0666 |
| CCATCGCA | -0.262 |

| Sequence | PBM E-score |
| --- | --- |
| GGCCTATA | -0.0565 |
| AATTTTAG | -0.218 |
| AGTGCGGC | 0.196 |
| ATACGCTC | 0.00427 |
| CGTTGGTC | -0.0089 |
| CCTTTCGC | 0.0666 |
| CACCGTAG | 0.0181 |
| ACTCCTAT | -0.0311 |
| CGCCCGCG | 0.263 |
| CGGGTACA | 0.0901 |
| AACAACTA | 0.0158 |
| TCCAGCGA | -0.135 |
| CGAGGAGC | -0.0106 |
| GCAACTAC | 0.0217 |
| CACGGGCC | 0.181 |
| CACGACTA | -0.321 |
| GCTAGCCA | -0.139 |
| GTTACCGA | 0.00688 |
| CTCTATGC | -0.109 |
| TAGAACAA | -0.174 |
| CGCGTATA | -0.0338 |
| CGGATTAA | 0.39 |
